Data from PubChem BioAssay AID1996.
Values after ≈ are worked out from the molar mass of the structure shown.

conditions: buffer; pH 7.4; 200.0 µM

SMILES	solubility kinetic
CCCC(C)NC(=O)c1cccc(Oc2ccccc2)c1 (stereo not drawn)	12.5 µg/mL (≈ 44.1 µM)
O=C(Nc1cccc(F)c1)c1ccc2c(c1)OCCO2	14 µg/mL (≈ 51.2 µM)
C/C(=N/OC(=O)c1ccccc1)c1oc(C)nc1C	28.2 µg/mL (≈ 109 µM)
Cc1cccc(NC(=O)COC(=O)C2C3CC4OC(=O)C2C4C3)c1C (stereo not drawn)	> 51.5 µg/mL
COCCNC(=O)[C@H]1N2C(=O)c3ccccc3C2SC1(C)C (stereo partly drawn)	> 48.1 µg/mL
CN1C(=O)/C(=C/C=C/c2ccco2)C(=O)NC1=S	21.1 µg/mL (≈ 80.4 µM)
Cc1ccc(S(=O)(=O)N2CCN(c3ncnc4ccccc34)CC2)cc1	0.8 µg/mL (≈ 2.17 µM)
OCc1cnc(SCc2ccccc2)n1Cc1ccccc1	46.3 µg/mL (≈ 149 µM)
